Hit rate of the full screen: of about 200,000 compounds, about 4,500 (2.2%) were called active. Inconclusive results, whose numbers are uncertain, are shown with a selection of clear calls. Calls follow the shape of the dose curve; as a rule, active = well fitted inhibition curve with a large enough effect; inconclusive = small, poorly fitted or top-dose-only effect, or effect the other way; inactive = flat fitted curve, though single readings scatter. A potency beside an inconclusive call is a rough fit, not a confirmed value.
What follows are compounds tested against Cruzipain (Trypanosoma cruzi) (UniProt P25779) (assay: qHTS Assay for Promiscuous and Specific Inhibitors of Cruzain (without detergent)). Conditions: purified cruzain, Z-FR-AMC fluorescence, no detergent.
Sequence of UniProt P25779 (P25779 whole entry, looked up): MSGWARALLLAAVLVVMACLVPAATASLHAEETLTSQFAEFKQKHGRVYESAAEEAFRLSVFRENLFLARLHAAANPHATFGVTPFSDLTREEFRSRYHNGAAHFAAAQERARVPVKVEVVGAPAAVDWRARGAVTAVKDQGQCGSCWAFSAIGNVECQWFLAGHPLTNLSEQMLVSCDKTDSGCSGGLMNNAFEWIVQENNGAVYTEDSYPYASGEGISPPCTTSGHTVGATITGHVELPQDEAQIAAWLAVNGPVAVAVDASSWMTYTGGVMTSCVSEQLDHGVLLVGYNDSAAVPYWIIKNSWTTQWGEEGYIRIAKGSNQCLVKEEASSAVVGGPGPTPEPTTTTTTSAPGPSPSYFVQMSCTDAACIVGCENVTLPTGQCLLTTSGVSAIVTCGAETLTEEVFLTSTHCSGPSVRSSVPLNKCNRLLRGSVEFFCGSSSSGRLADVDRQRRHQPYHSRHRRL
Method in brief: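 Purified cruzain at 1.5 nM, pre-incubated 15 min with compound at room temperature in 100 mM sodium acetate pH 5.5, 5 mM DTT, 0.00005% Triton X-100. Reaction started with 2 uM Z-FR-AMC; AMC fluorescence increase over 60 s gives rate.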
Also: nearly all actives have a fitted effect of over 40% in size.
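For max response, negative = inhibition in this document: plate controls were enzyme without inhibitor for no effect and buffer without enzyme for full effect.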
Potency is read from the fitted curve at half-maximal effect; tags tell the direction and shape of the fitted curve.

SMILES	max response, negative = inhibition	Potency
CCOc1ccc(C(=O)N2CCN(CCc3ccccn3)CC2)cc1	inactive: -2.86%	
CCOC(=O)C1=C(C)N=C2c3ccccc3C(=O)C2C1c1ccc(Cl)cc1 (stereo not given)	inactive: -6.81%	
COc1ccc(S(=O)(=O)n2nc(OC(=O)c3ccc(C)cc3)cc2N)cc1	inactive: -26.1%	
Cc1ccc2nc(/C(C#N)=C\c3ccc(Oc4ccc(C(F)(F)F)cc4[N+](=O)[O-])cc3)[nH]c2c1		active: 7.94 µM
COc1ccc(N2CCN(c3ccc(-c4nc(-c5cccc(C)c5)no4)cc3[N+](=O)[O-])CC2)cc1	inactive: -4.1%	
O=C(NCCC1=CCCCC1)c1ccc2c(c1)N(Cc1cccc(Cl)c1)C(=O)c1ccccc1S2(=O)=O		inconclusive: 31.6 µM [inhibitor, single point]
CC(=O)c1cc2c(cc1NC(=O)c1cnn(-c3ccc(C)cc3)c1-n1cccc1)OCO2	inactive: -12.4%	
O=C(Cn1ncc2c3ccccc3n(Cc3ccccc3F)c2c1=O)N1CCCCC1		inconclusive: 25.1 µM [activator, partial curve]
CSc1ccc(S(=O)(=O)Nc2ccc3c4c(cccc24)CC3)cc1		inconclusive: 31.6 µM [inhibitor, single point]
COc1ccc(OC)c(S(=O)(=O)N2CCN(c3c(C)cccc3C)CC2)c1		inconclusive: 39.8 µM [inhibitor, single point]
COCCCNC(=S)NC(=O)c1ccc([N+](=O)[O-])cc1	inactive: -9.94%	
CCCCCCCCNc1nc(Cl)nc(NCc2ccco2)n1		active: 15.8 µM
Cn1c(O)c(C=NC2CCN(Cc3ccccc3)CC2)c(=O)n(C)c1=O		inconclusive: 39.8 µM [activator, single point]
Cc1ccc2ccc3cc(C(=O)N4CCN(c5ccccc5)CC4)nc3c2[nH]1	inactive: 2.71%	
Cc1ccc(NC(=O)C(=O)NCC(c2cccnc2)N2CCN(Cc3ccccc3)CC2)cc1 (stereo not given)	inactive: -10.2%	
CC1CCN(S(=O)(=O)c2ccc3c(c2)N(CC(=O)O)C(=O)CO3)CC1	inactive: -0.244%	
COc1ccc2c(c1)CCc1cc(C(=O)N3CCN(c4ccc(N5CCOCC5)nn4)CC3)sc1-2		inconclusive: 39.8 µM [activator, single point]
Cc1cccc(C(=O)Nc2nnc(SCC(=O)Nc3ccc4c(c3)oc3ccccc34)s2)c1		active: 20 µM
CCOc1cc(N2CCOCC2)c(OCC)cc1NC(=O)Cc1ccccc1OC		inconclusive: 39.8 µM [activator, single point]
Cc1cccn2c(=O)c3cc(C(=O)N(Cc4ccccc4)C(C)C)sc3nc12		inconclusive: 31.6 µM [activator, single point]
